Laboratory results: PubChem BioAssay AID686979 (National Center for Advancing Translational Sciences (NCATS), 2013)
“And” between values parts separate entries of the source, which are not always exact repeats. Equal entries are not always repeated. The campaign covered roughly 420,000 compounds. About 50,000 (12%) were called active. The inconclusive results got no clear call from the source; some entries with a clear call stand among them for comparison. Calls follow the shape of the dose curve; as a rule, active = well fitted inhibition curve with a large enough effect; inconclusive = small, poorly fitted or top-dose-only effect; inactive = flat fitted curve, though single readings scatter. A potency beside an inconclusive call is a rough fit, not a confirmed value.

Assay: qHTS for Inhibitors of human tyrosyl-DNA phosphodiesterase 1 (TDP1): qHTS in cells in presence of CPT; also: nearly all actives have a fitted effect of over 55% in size
Conditions: chicken DT40 Tdp1-/-;hTDP1 cells + 20 nM CPT, ATP luminescence, 48 h; activity change, negative = growth inhibition: at 46.2 µM (top of the series) unless noted
Method in brief: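 Chicken DT40 Tdp1-/- cells stably complemented with human TDP1 were seeded at 400 cells/well in medium containing 20 nM camptothecin, exposed to pin-transferred compounds, and grown at 37 °C for at least 48 hr. Viability was read as ATP luminescence.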
% is scaled to controls: 0 for no effect and ±100 for the full control effect; potency is read from the fitted curve at half-maximal effect; tags tell the direction and shape of the fitted curve.

Compound | Potency | activity change, negative = growth inhibition
O=c1c(CCc2ccccc2)nc2cnc(Oc3cccc(Cl)c3)nc2n1C[C@H]1CCCO1 | inconclusive: 23.1 µM [inhibitor, single point] | 
CCOc1ccc(NC(=O)CN2C(=O)NC3(CCCCCC3)C2=O)cc1 | inconclusive: 29.1 µM [inhibitor, single point] | 
O=C(CCNS(=O)(=O)c1ccc2ccccc2c1)NCCOc1ccccc1 | inconclusive: 18.4 µM [inhibitor, single point] | 
Cc1cc(OCC(=O)Nc2ccc(CN3CCOCC3)cc2)ccc1Cl |  | inactive: -73.7%
CC1(Cc2ccccc2Cl)C(=O)Nc2ccc(OC(F)(F)F)cc21 (stereo not drawn) | active: 23.1 µM | 
CCSc1ncc(Cl)c(C(=O)Nc2ccc(S(=O)(=O)Nc3onc(C)c3C)cc2)n1 |  | inactive: -23.7%
Cc1ccc(C(C)(C)C)cc1S(=O)(=O)N1CCC(C(=O)N2CCN(c3ccc(O)cc3)CC2)CC1 | inconclusive: 29.1 µM [inhibitor, single point] | 
CCCCn1c(=NC(=O)c2ccco2)c(C(=O)OCC)cc2c(=O)n3ccccc3nc21 | inconclusive: 20.6 µM [inhibitor, single point] | 
Cc1cccc(CN2CCC(C(=O)Nc3cccc(-c4cscn4)c3)CC2)n1 | inconclusive: 23.1 µM [inhibitor, single point] | 
COc1cc(OC)cc(-c2c(C#Cc3ccsc3)c3cc(-c4ccccc4OC)ccc3n2C)c1 | inconclusive: 3.66 µM [inhibitor, single point] | 
O=C(O)CCC(=O)NNc1nc(-c2ccccc2)c2cc(Cl)ccc2n1 |  | inactive: 5.3%
Cc1ccc(-c2ccc(/C=N/N=C3/NC(=O)C(CC(=O)O)S3)o2)c([N+](=O)[O-])c1 (stereo not drawn) |  | inactive: 1.87%
Cc1ccc(S(=O)(=O)NCc2ccccc2)cc1C(=O)N(C)Cc1ccc(F)cc1 | inconclusive: 18.4 µM [inhibitor, single point] | 
O=C(C=Cc1ccc2c(c1)OCO2)c1ccccc1 | inconclusive: 23.1 µM [inhibitor, single point] | 
CC(C)(C)c1ccc(-c2nnc(SCC(=O)c3ccc4c(c3)OCCO4)o2)cc1 |  | inconclusive: -32.6% [inhibitor]
NC(=S)N/N=C/C=C/c1ccccc1 | active: 5.8 µM | 
CCC(CC)CN1CCC(CN2C(=S)NC[C@@H]2CC(C)C)CC1 | inconclusive: 0.461 µM [inhibitor, full curve, poor fit] | 
Cc1ccc(C)c(N2C(=O)CC(Cc3ccc(Br)cc3)C2=O)c1 (stereo not drawn) | inconclusive: 23.1 µM [inhibitor, single point] | 
COc1ccc(OC)c(NC(=O)CN(C)S(=O)(=O)c2ccc(C(=O)N3CCOCC3)s2)c1 | inconclusive: 29.1 µM [inhibitor, single point] | 
O=C(c1cnn2c(C(F)F)cc(-c3ccccc3)nc12)N1CCN(Cc2ccc3c(c2)OCO3)CC1 | inconclusive: 29.1 µM [inhibitor, single point] | 
CCOc1cc(-c2nc3cc(C)ccn3c2NCC2CCCO2)ccc1O (stereo not drawn) | inconclusive: 11.6 µM [inhibitor, partial curve] | 
Cc1cc(C)c2cc(C(=O)N3CCC(C(=O)c4ccc(F)cc4)CC3)[nH]c2c1 | inconclusive: 18.4 µM [inhibitor, single point] | 

Compound | Potency | activity change, negative = growth inhibition
Cc1ccccc1-c1cc(C(=O)Nc2sc(C)c(C)c2C(N)=O)c2ccccc2n1 | active: 16.4 µM | 
O=C(C(c1ccccc1)c1ccccc1)N1CCN(Cc2ccncc2)CC1 |  | inconclusive: -30.3% [inhibitor]
COc1ccc(C)cc1NC(=O)N(Cc1ccc(C)o1)C1CCN(C(C)=O)CC1 | inconclusive: 25.9 µM [inhibitor, partial curve] | 
Nc1nc(SCC(=O)NC2CCCCCC2)[nH]c(=O)c1-c1ccccc1 |  | inactive: -12%
COc1ccccc1C(=O)COC(=O)c1cccc(S(=O)(=O)N2CCCC2)c1 | inconclusive: 29.1 µM [inhibitor, single point] | 
CN(c1ccccc1)S(=O)(=O)c1ccc(Cl)c(C(=O)Nc2ccccc2N2CCOCC2)c1 | active: 8.2 µM | 
CCCC[C@H]1COCCS(=O)(=O)N1Cc1ccc(F)cc1 | inactive and inconclusive: 35.5 µM [inhibitor, single point] | 
c1ccc(-c2nc3ccccc3n2C(c2ccccc2)c2nc3ccccc3[nH]2)cc1 (stereo not drawn) | inconclusive: 25.9 µM [inhibitor, single point] | 
Cc1ccc(-c2nnc(Nc3cccc(Cl)c3)c3ccccc23)cc1S(=O)(=O)N1CCOCC1 | active: 16.4 µM | 
Cc1cc(C)c(NC(=O)CSc2nc3ccccc3nc2N2CCCCC2)c(C)c1 | active: 7.31 µM | 
CCOC(=O)c1c(NC(=O)c2cccnc2)sc(C)c1C | inconclusive: 23.1 µM [inhibitor, single point] | 
COCOc1cc(O)c(C(=O)/C=C/c2ccc(OCOC)c(OCOC)c2)c(OCOC)c1 | inconclusive: 29.1 µM [inhibitor, single point] | 
COC(=O)CN(C(=O)CSc1nnc(-c2cccc(OC)c2)o1)c1ccc(OC)cc1 | inconclusive: 25.9 µM [inhibitor, single point] | 
Cc1cc(C)cc(NC(=O)CN2CCN(c3ccccn3)CC2)c1 |  | inactive: 5.54%
O=C(CNc1cc(S(=O)(=O)N2CCOCC2)ccc1NCC1CCCO1)Nc1ccc(C(F)(F)F)cc1 (stereo not drawn) | inconclusive: 18.4 µM [inhibitor, single point] | 
Cn1c(-c2ccccc2)c(Sc2ccccc2)c2cc(-c3ccc4[nH]ccc4c3)ccc21 | inconclusive: 20.6 µM [inhibitor, single point] | 
NNC(=O)C1SCCN1S(=O)(=O)c1ccc(Cl)cc1 (stereo not drawn) |  | inactive: 7.77%
COc1cc(=O)n2c(c1C(=O)NC(C)c1ccco1)CCN(Cc1ccccc1Cl)CC2 (stereo not drawn) |  | inactive: 2.31%
CC1CCN(C(=O)Cn2cc(SCC(=O)NCc3ccccc3Cl)c3ccccc32)CC1 | inconclusive: 18.4 µM [inhibitor, single point] | 
CCN(CC)CCNC(=O)c1cc2c(s1)-c1ccccc1SC2 | active: 23.1 µM | 
CCCc1ccc2oc(C(=O)N3CCC(N4CCCC(O)C4)CC3)c(C)c2c1 (stereo not drawn) | inconclusive: 23.1 µM [inhibitor, single point] | 
